Experimental data: PubChem BioAssay AID686979 (National Center for Advancing Translational Sciences (NCATS), 2013)
In all, about 420,000 compounds went through this assay and about 50,000 (12%) were called active. The inconclusive results got no clear call from the source; some entries with a clear call stand among them for comparison. The call rests on the fitted dose curve; in most records, active means well fitted inhibition curve with a large enough effect; inconclusive means small, poorly fitted or top-dose-only effect; inactive means flat fitted curve, though single readings scatter. No potency is given beside an inconclusive call; the fits are too rough.

Experiment: qHTS for Inhibitors of human tyrosyl-DNA phosphodiesterase 1 (TDP1): qHTS in cells in presence of CPT; further: nearly all actives have a fitted effect of over 55% in size
Details: chicken DT40 Tdp1-/-;hTDP1 cells + 20 nM CPT, ATP luminescence, 48 h; series mostly up to 46.2 µM
In short: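 Chicken DT40 Tdp1-/- cells complemented with human TDP1, 400 cells/well, exposed to compounds plus 20 nM camptothecin for at least 48 h at 37 C; viability read as ATP content by CellTiter-Glo luminescence.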
Potency means the concentration at half of the fitted maximal effect; tags describe the fitted curve by direction and shape.

| SMILES | Potency |
| --- | --- |
| Cc1ccc(C)c(N2CCN(C(=O)CCc3nc(-c4ccccc4F)no3)CC2)c1 | inconclusive [inhibitor, single point] |
| CCCCCCCNC(=O)C1(CC2CC(c3ccc(Cl)cc3)=NO2)CCN(C(=O)C2CCCC2)CC1 (configuration not stated) | inconclusive [inhibitor, single point] |
| CC(C)(C)c1ccc(C(=O)NCCc2csc3nc(-c4ccccc4F)nn23)cc1 | active: 20.6 µM |
| COc1ccccc1CNC(=O)CN1C(=O)COc2ccc(S(=O)(=O)Nc3ccccc3)cc21 | inactive |
| CC1CN(CC(=O)NCc2ccc(F)cc2)CC(C)O1 (configuration not stated) | inactive |
| COc1ccc(CCNC(=O)c2ccc(OCc3c(C)noc3C)c(OC)c2)cc1 | inactive |
| O=C(O)c1nn(CC(=O)N2CCN(c3ncc(C(F)(F)F)cc3Cl)CC2)c(=O)c2ccccc12 | inactive |
| O=C(Nc1cc(-c2nc3ccccc3s2)ccc1Cl)c1cc2ccccc2o1 | inactive |
| CN(Cc1ccccc1)C(=O)c1ccc2c(c1)N(Cc1ccccc1F)C(=O)c1ccccc1S2(=O)=O | inconclusive [inhibitor, partial curve] |
| Cc1ccccc1NC(=O)c1nc(S(C)(=O)=O)ncc1Cl | active: 2.31 µM |
| COc1ccccc1OCCn1nc2ccccc2c1OC | inactive |
| CCCCNc1c(-c2cccc(-c3ccc(OC)cc3)c2)nc2cc(C)ccn12 | active: 16.4 µM |
| COc1ccc(OC)c(NC(=O)Cn2cnc3ccc(S(=O)(=O)N4CCC(C)CC4)cc3c2=O)c1 | active: 23.1 µM |
| O=C(c1ccccc1)c1ccc(OCC(O)CNCc2ccc(Cl)cc2)cc1 (configuration not stated) | inconclusive [inhibitor, single point] |
| NC(=S)N/N=C/c1ccc(-c2cccc([N+](=O)[O-])c2)o1 | active: 5.17 µM |
| CN(C(=O)c1ccc(NC(=O)Cc2cccc(NC(=O)C3CCCN(C(=O)C4CC4)C3)c2)cc1)C1CC1 (configuration not stated) | inactive |
| Fc1ccc(NC(=S)Nc2ccc(Br)cc2)cc1 | active: 8.2 µM |
| O=S(=O)(Nc1ccccc1C(F)(F)F)c1ccc(N2CCCCS2(=O)=O)cc1 | inactive |
| COc1ccc(NC(=O)C2CCCN(S(=O)(=O)c3cccc4nonc34)C2)cc1 (configuration not stated) | inconclusive [inhibitor, single point] |
| CCCNCC(O)Cn1c2ccccc2n2c(=O)cc(C)c(C#N)c12 (configuration not stated) | inconclusive [inhibitor, single point] |
| COC(=O)Cc1ccc(NC(=S)N2CCN(c3ccc(OC)cc3)CC2)cc1 | inactive |
| CCCCNC(=S)N=Nc1c(O)[nH]c2ccccc12 | inconclusive [inhibitor, single point] |
